# Whole data set: some 33,000 sequences, median “E-score (-0.5 to 0.5)” near -0.017, cut for the highest 2% near 0.3. Some of the results follow.
# Target: T1, Sut1 (UniProt P53032)
# T1 sequence: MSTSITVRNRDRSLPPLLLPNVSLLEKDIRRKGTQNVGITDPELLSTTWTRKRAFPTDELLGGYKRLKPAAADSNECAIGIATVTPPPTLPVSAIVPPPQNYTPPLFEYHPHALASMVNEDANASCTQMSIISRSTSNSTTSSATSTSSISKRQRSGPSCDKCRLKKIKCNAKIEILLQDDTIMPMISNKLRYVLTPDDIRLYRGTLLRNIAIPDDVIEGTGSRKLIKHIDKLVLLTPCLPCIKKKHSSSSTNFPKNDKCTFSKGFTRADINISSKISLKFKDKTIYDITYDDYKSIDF
# Assay: PBM E-score (8-mer binding enrichment) (E-score (-0.5 to 0.5)); higher = stronger / more preferred TF binding; most listed sequences are background and not binding sites
# Details: protein concentration: 200 nM; construct: GST-full length
# Method in brief: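 Masliner-normalised scans of fluorescent anti-GST signal were the basis for scoring. That signal came from GST-tagged yeast transcription factors applied at about 100-200 nM to double-stranded universal all-10-mer Agilent arrays on fresh or once-stripped slides. Each ungapped eight-base word, pooled with its reverse complement, received an E-score from the Universal PBM Analysis Suite.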
row,Sequence,PBM E-score
1,CCAGGCGC,-0.211
2,GAGTTAAC,0.104
3,CGTGATTA,0.0962
4,ACGACGAC,-0.125
5,CAGTGCGC,-0.321
6,ATGTGTAA,0.139
7,GCTCGTCC,-0.109
8,GAACATCA,0.00284
9,GCCCTATA,-0.213
10,CTTGACAC,-0.0991
11,ATCCGGCC,0.135
12,ACGTGCGC,-0.0634
13,TAAAAAGA,0.174
14,TTCCCAAA,0.135
15,CAACGCCA,-0.0828
16,CATGCTGA,-0.116
17,GTTCTGTA,0.157
18,CATACTGG,-0.126
19,ATACGAGC,0.0241
20,AGAACATA,0.242
21,ACTTCAGG,0.12
22,ATCATACG,0.157

row,Sequence,PBM E-score
1,AAGGAACG,-0.0932
2,ATACTGAA,0.0375
3,AACACCTG,-0.0429
4,AGCCGCCG,0.0448
5,CACATCGA,-0.0466
6,AAGAACAT,0.239
7,CAAAGTTG,-0.0132
8,GTCCGAGA,0.428
9,ATATTCGC,0.0593
10,AAGGGGAT,-0.136
11,TCCCCGCA,-0.0536
12,CGGCTAGC,-0.112
13,AGTCTTGG,-0.0295
14,CATTGGCA,-0.116
15,GGCCAAAC,0.0247
16,AACTCACT,-0.151
17,CAGATAGG,-0.0738
18,AGCGATAC,-0.184
19,TCATGCAA,0.0478
20,CTGAATAC,0.0418
21,AAGTCGAT,-0.00629
22,AAATCTCC,0.148

row,Sequence,PBM E-score
1,CAGAAAAG,-0.00307
2,CAATTCGG,0.202
3,CTGGAGAA,-0.147
4,ACTCATCT,0.0709
5,GATACCCC,-0.0838
6,AATCCAGC,-0.00361
7,CCTATGTC,-0.0366
8,CCACACTA,0.154
9,AGCCCCAA,-0.358
10,AACTGTTC,0.223
11,GAAATCGC,0.1
12,ACGCGCAG,-0.294
13,CCCCCTAG,-0.276
14,CCTCAAGC,-0.158
15,GTGGACTA,-0.0903
16,GGCAGGCA,-0.0593
17,CAAATAAA,0.22
18,ACGCGCCT,-0.0499
19,GTGCGGGA,-0.0127
20,AAGCGGTG,-0.244
21,AAGGTATT,0.199
22,CCCATGAC,-0.149

row,Sequence,PBM E-score
1,CAATAGTC,-0.0228
2,ACCGGATA,0.0607
3,AAAACGTT,0.165
4,ATGTTACC,0.108
5,CTAATGAG,-0.0573
6,ATAGCACG,-0.00069
7,CCGCACGA,0.0172
8,AGTGCGCG,-0.0893
9,GTGATCAA,0.0378
10,AGCTCATA,0.0944
11,TTCGTAAA,0.232
12,AGGGAGCA,-0.209
13,AGCATTGA,-0.0961
14,ACACAACT,-0.0304
15,AAGCACTT,-0.0445
16,AGAGCCAC,-0.0775
17,AAGAGGCG,-0.0418
18,CTGTAGGA,-0.0619
19,CGTGACCA,-0.0488
20,GCCTAGCC,-0.0647
